We go through 146 sequences from the BET-seq Pho4 binding data (Le et al. 2018).

Some of the results follow. These are noisy estimates, calculated here from bound and input reads.

The experiment concerns the target T1, Pho4 (S. cerevisiae) (UniProt P07270).
T1 sequence: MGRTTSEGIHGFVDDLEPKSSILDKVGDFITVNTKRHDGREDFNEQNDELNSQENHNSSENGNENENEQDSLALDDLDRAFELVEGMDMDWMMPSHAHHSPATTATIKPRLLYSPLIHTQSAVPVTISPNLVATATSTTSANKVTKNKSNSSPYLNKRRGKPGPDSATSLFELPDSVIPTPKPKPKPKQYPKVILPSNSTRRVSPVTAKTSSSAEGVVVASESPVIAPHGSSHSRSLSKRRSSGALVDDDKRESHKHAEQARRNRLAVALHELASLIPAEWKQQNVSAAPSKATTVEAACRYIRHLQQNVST
Description: relative binding free energy (BET-seq); higher = weaker binding. The conditions noted are these: reference: library average.
In the case of TGTTACACGTGTTGGC, the “relative binding free energy” value came to 0.24 kcal/mol. For GCGTGCACGTGTGGGG, the “relative binding free energy” value was -0.03 kcal/mol.

Turning to TTTTGCACGTGGTAGA, the “relative binding free energy” value was 0.02 kcal/mol. On to ATTGACACGTGTGTTA, for which the “relative binding free energy” value was -0.07 kcal/mol. Regarding AGATACACGTGGGATA, the “relative binding free energy” value turned out to be 0.05 kcal/mol. The figure for GTGTCCACGTGTAAGG is 0.02 kcal/mol. Consider TGTGGCACGTGAGGAC, for which the “relative binding free energy” value turned out to be 0.11 kcal/mol. The figure for AGATTCACGTGTATGA is 0.21 kcal/mol; for AATGACACGTGGGGTA it is -0.17 kcal/mol. With TTAACCACGTGTAGGT, the “relative binding free energy” value was -0.03 kcal/mol. TTCAGCACGTGGGGGC: the “relative binding free energy” value is -0.24 kcal/mol.

On to GAAGGCACGTGGTGAA, for which the “relative binding free energy” value was -0.1 kcal/mol.

Turning to GTTTTCACGTGGGGGA, the “relative binding free energy” value is 0.17 kcal/mol. Regarding GGATACACGTGGTGCT, the “relative binding free energy” value turned out to be 0.11 kcal/mol.

As to GGTGACACGTGGGGTG, the “relative binding free energy” value is -0.08 kcal/mol.

Consider AGGGACACGTGTGCGG, for which the “relative binding free energy” value worked out at 0.02 kcal/mol. For the sequence GGGTGCACGTGCGGTC, the “relative binding free energy” value stood at 0.09 kcal/mol. For the sequence AACGTCACGTGGAGTA, the “relative binding free energy” value was 0.17 kcal/mol. As for ATGCGCACGTGTGCGT, the “relative binding free energy” value is -0.07 kcal/mol. Then GCGTGCACGTGGCGTG, with -0.13 kcal/mol.

As to ATGGCCACGTGATCGG, the “relative binding free energy” value was 0.14 kcal/mol. Take TATGTCACGTGTGGTC: the “relative binding free energy” value came out at 0.15 kcal/mol. The figure for GCTAACACGTGAGGGG is 0.12 kcal/mol; for GGTGTCACGTGCTTTT it is 0.11 kcal/mol; for CAAATCACGTGTGGGT it is 0.16 kcal/mol.

On to TGGGTCACGTGGTGGA, for which the “relative binding free energy” value turned out to be 0.14 kcal/mol.

With TGGCACACGTGGATGG, the “relative binding free energy” value was 0.08 kcal/mol. The figure for GGTAACACGTGAAGTG is 0.22 kcal/mol; for ATGGGCACGTGACAGG it is -0.1 kcal/mol. The figure for TTCGACACGTGAAGGG is 0.27 kcal/mol; for GATGGCACGTGGTCAT it is -0.21 kcal/mol; for CGTTTCACGTGGAATG it is 0.23 kcal/mol. With GTGTGCACGTGGCGCG, the “relative binding free energy” value is 0.03 kcal/mol. As for GTTAACACGTGTTAGA, the “relative binding free energy” value was found to be 0.14 kcal/mol. The figure for ATTAGCACGTGGCTAG is -0.12 kcal/mol; for GTTGTCACGTGAGAAT it is 0.39 kcal/mol; for ATATACACGTGCGTTG it is -0.04 kcal/mol.

For the sequence TTGGACACGTGTGTAA, the “relative binding free energy” value came to 0.1 kcal/mol.

Regarding TTGATCACGTGAGATG, the “relative binding free energy” value is 0.39 kcal/mol. Consider GGAATCACGTGTTGGC, for which the “relative binding free energy” value came to 0.16 kcal/mol. With CTTATCACGTGGTTGC, the “relative binding free energy” value is 0.08 kcal/mol. The figure for TGGGGCACGTGGTTTT is 0.03 kcal/mol.

Turning to CGTTTCACGTGGAGGA, the “relative binding free energy” value came out at 0.25 kcal/mol. Turning to TTTTTCACGTGGCTTC, the “relative binding free energy” value was 0.21 kcal/mol. TGTGGCACGTGGTGGG: the “relative binding free energy” value is -0.08 kcal/mol. The figure for GTCAGCACGTGGTTTA is -0.03 kcal/mol; for TGTGACACGTGTCTTA it is -0.01 kcal/mol.

For the sequence ATGGTCACGTGGGCTT, the “relative binding free energy” value is -0.04 kcal/mol. For the sequence GGTATCACGTGTATTT, the “relative binding free energy” value was found to be 0.23 kcal/mol.

Turning to GGATGCACGTGGTGCA, the “relative binding free energy” value is -0.14 kcal/mol. Regarding CTGGTCACGTGGTAGG, the “relative binding free energy” value was found to be 0.03 kcal/mol.

As to TCGTCCACGTGTGGGT, the “relative binding free energy” value is 0.09 kcal/mol.

With TTTGTCACGTGGCCTA, the “relative binding free energy” value stood at 0.04 kcal/mol.

Turning to GTTAACACGTGGAGGC, the “relative binding free energy” value is 0.03 kcal/mol. On to TGGTGCACGTGGTTGC, for which the “relative binding free energy” value was -0.15 kcal/mol. The figure for ATGTGCACGTGCTGTT is -0.09 kcal/mol; for AAGAGCACGTGTTTGA it is -0.21 kcal/mol; for GGGGGCACGTGGGGTC it is -0.14 kcal/mol. Then GTGCGCACGTGAGTGG, with 0.16 kcal/mol. Regarding TCAATCACGTGTATGG, the “relative binding free energy” value turned out to be 0.25 kcal/mol.

Consider ATTCGCACGTGGTGGT, for which the “relative binding free energy” value was -0.04 kcal/mol.

CATAACACGTGGTGGG: the “relative binding free energy” value is -0.08 kcal/mol.

For the sequence TTGGGCACGTGGCGGG, the “relative binding free energy” value was -0.15 kcal/mol. The figure for TAAATCACGTGAAAGT is 0.32 kcal/mol; for AGCGACACGTGGGGCG it is -0.05 kcal/mol. On to AATGGCACGTGTACGT, for which the “relative binding free energy” value turned out to be 0 kcal/mol. Regarding TGCAGCACGTGGTTAG, the “relative binding free energy” value was -0.27 kcal/mol. Then GTGGACACGTGGAGTA, with 0.05 kcal/mol; and GGAACCACGTGTGGGG, with -0.03 kcal/mol. As for TTGAACACGTGTGGGC, the “relative binding free energy” value was found to be 0.14 kcal/mol.

With TGTTACACGTGCGAAG, the “relative binding free energy” value was determined as 0.2 kcal/mol. The figure for TGATGCACGTGTGGTA is -0.1 kcal/mol; for CGGTTCACGTGGGCTG it is 0.15 kcal/mol.

Regarding TGTTACACGTGCAATT, the “relative binding free energy” value worked out at 0.26 kcal/mol. Then AATTTCACGTGGTTGA, with 0.15 kcal/mol. Consider TTGTACACGTGATGGG, for which the “relative binding free energy” value amounted to 0.11 kcal/mol. Then TTTGGCACGTGCGGAT, with -0.18 kcal/mol; and ACGTGCACGTGTTTGG, with -0.14 kcal/mol; and GTTGACACGTGGGTGA, with -0.09 kcal/mol.

For the sequence ATAATCACGTGGAAGT, the “relative binding free energy” value stood at 0.16 kcal/mol. The figure for TTCATCACGTGTGTAT is 0.13 kcal/mol; for TTCGGCACGTGCTTTG it is -0.18 kcal/mol; for GTGTACACGTGTAATA it is 0.22 kcal/mol.

Turning to GTATGCACGTGGTGAG, the “relative binding free energy” value was -0.14 kcal/mol. Then TTATGCACGTGGGCGG, with -0.1 kcal/mol; and AAGTGCACGTGTGAAG, with -0.09 kcal/mol.

In the case of TTGATCACGTGCGGGG, the “relative binding free energy” value is 0.1 kcal/mol. As for TGGTACACGTGGGGGA, the “relative binding free energy” value was -0.09 kcal/mol. Then GTAAACACGTGGGGTG, with -0.15 kcal/mol; and ATTTACACGTGAGTTG, with 0.29 kcal/mol; and CTGAGCACGTGTGATG, with -0.03 kcal/mol. Take TATAGCACGTGCGGAT: the “relative binding free energy” value was -0.12 kcal/mol. The figure for ATACTCACGTGTTTTG is 0.08 kcal/mol. Regarding AATGGCACGTGCGTTG, the “relative binding free energy” value is -0.26 kcal/mol. TGAGTCACGTGAACTG: the “relative binding free energy” value was 0.29 kcal/mol.

Turning to GTGTGCACGTGGATGT, the “relative binding free energy” value came out at 0.06 kcal/mol. For TGGAACACGTGGGTTA, the “relative binding free energy” value was -0.19 kcal/mol. Then GGGGGCACGTGTGCTC, with -0.2 kcal/mol.

Turning to GGGGACACGTGTCAAG, the “relative binding free energy” value amounted to 0.06 kcal/mol.

Regarding GGTAGCACGTGAGGGG, the “relative binding free energy” value is 0.27 kcal/mol.

Regarding CGGTGCACGTGTTCGT, the “relative binding free energy” value turned out to be 0.03 kcal/mol. For TGTTGCACGTGGTACT, the “relative binding free energy” value was 0 kcal/mol. Then ACTCTCACGTGGTGGT, with 0.07 kcal/mol; and GTTATCACGTGTCTGT, with 0.2 kcal/mol; and TTGTGCACGTGTCATA, with 0.06 kcal/mol. Consider TGTGGCACGTGTACGA, for which the “relative binding free energy” value was -0.17 kcal/mol. With CTGATCACGTGTGAGT, the “relative binding free energy” value came out at 0.15 kcal/mol.

On to GAAAACACGTGGTGGG, for which the “relative binding free energy” value was -0.06 kcal/mol. In the case of TGAAACACGTGCTTGG, the “relative binding free energy” value turned out to be 0.05 kcal/mol.

For the sequence GAAGGCACGTGGTCTA, the “relative binding free energy” value is -0.06 kcal/mol.

As for TTATTCACGTGTGGTG, the “relative binding free energy” value was 0.28 kcal/mol. On to TCTGACACGTGTGGTT, for which the “relative binding free energy” value was -0.08 kcal/mol.

Consider TTAAGCACGTGGGCCT, for which the “relative binding free energy” value is -0.16 kcal/mol. Regarding TGTTACACGTGTTTGG, the “relative binding free energy” value came to 0.17 kcal/mol.

For the sequence TTTTTCACGTGTGCTG, the “relative binding free energy” value is 0.28 kcal/mol. With ATTGGCACGTGTGAGG, the “relative binding free energy” value was -0.03 kcal/mol. With GTGGCCACGTGGGTCA, the “relative binding free energy” value is -0.19 kcal/mol. Turning to TCTGTCACGTGATTGT, the “relative binding free energy” value came to 0.25 kcal/mol.

As to GGGCGCACGTGGATCG, the “relative binding free energy” value was found to be 0.03 kcal/mol. Then CCGGTCACGTGTGAGG, with 0.15 kcal/mol; and AATAACACGTGGATGG, with 0.01 kcal/mol. In the case of GTGGGCACGTGACTAG, the “relative binding free energy” value came to 0.1 kcal/mol. Then TGGTGCACGTGGTCAC, with -0.01 kcal/mol; and TGTTACACGTGTGCAT, with -0.04 kcal/mol.

For GCTGTCACGTGTTGAG, the “relative binding free energy” value is 0.24 kcal/mol.

Regarding ATTGTCACGTGGGCCT, the “relative binding free energy” value was -0.02 kcal/mol. For the sequence AAGTACACGTGGTTTA, the “relative binding free energy” value was 0.02 kcal/mol.

As for TATATCACGTGAGTGC, the “relative binding free energy” value stood at 0.25 kcal/mol. For the sequence TTCTGCACGTGTTGTT, the “relative binding free energy” value amounted to 0.06 kcal/mol. On to ACGCGCACGTGTGGGT, for which the “relative binding free energy” value is -0.09 kcal/mol. In the case of TTGTGCACGTGGGCAC, the “relative binding free energy” value is -0.23 kcal/mol. Then TAATGCACGTGGTAAT, with -0.03 kcal/mol; and TGGGGCACGTGGAGTA, with -0.17 kcal/mol; and GTTTACACGTGAAGCG, with 0.36 kcal/mol. Regarding TATAGCACGTGCATGT, the “relative binding free energy” value was -0.08 kcal/mol.

As for AGGTGCACGTGAATTA, the “relative binding free energy” value was found to be 0.2 kcal/mol. Regarding TATGCCACGTGGAGGT, the “relative binding free energy” value was -0.07 kcal/mol.

With GGGAACACGTGAGGAG, the “relative binding free energy” value is 0.28 kcal/mol. Then ATTGACACGTGTAGTT, with 0.06 kcal/mol; and AGTGGCACGTGAGTGC, with -0.01 kcal/mol. The figure for TGATGCACGTGATGTC is 0.07 kcal/mol.

Turning to TATTACACGTGGGATG, the “relative binding free energy” value was -0.1 kcal/mol. The figure for TTTACCACGTGGGTGT is -0.21 kcal/mol; for TCTTTCACGTGCAGGT it is 0.15 kcal/mol; for CTAGTCACGTGGAGGA it is 0.06 kcal/mol.

With CGGGACACGTGCAGGT, the “relative binding free energy” value amounted to 0.02 kcal/mol.
